# In the RNAGym collection of RNA variant scans (doi:10.1093/nar/gkz1192):
# The source gives no read counts; variants with many changes may rest on few reads.
# B1: CPEB3 Ribozyme (parent)
# chain: UAACAGGGGGCCACAGCAGAAGCGUUCACGUCGCAGCCCCUGUCAGAUUCUGGUGAAUCUGCGAAUUCUGCUGUAUAUCUC
# Variants of: B1
# Experiment: self-cleavage, relative activity (ratio to wild type); higher = more cleavage; in vitro, sequencing
# Procedure, shortened: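 For each CPEB3 ribozyme variant, relative activity is its cleaved/total read fraction divided by the unmutated ribozyme's. Barcoded error-prone PCR libraries were transcribed by T7 RNA polymerase (5 hours, 37°C) and held in DNase I for 15 min before an EDTA stop, with cleavage occurring throughout. Template-switching reverse transcription and Illumina sequencing were used to read the RNAs. A 5-read minimum applied, and results are the mean of three batches.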
row,Variant,self-cleavage
1,UAACAGGGGGCCGCAGCAGAAGCGUUCACGUCGCAGCCCCUGUCAGAUCCUGGUGAAUCUGCGAAUUCUGCUGUAUAUCCC [A13G U49C U80C],0.66
2,UAACAGGGGGCCGCAGCAGAAGCGUUCACGUCGCAGCCCCUGUCAGAUUCAGGUGAAUCUGCGUACUCUGCUGUAUAUCUC [A13G U51A A64U U66C],0.31
3,UAACAGGGGGCCGCAGCAGAAGCGUUCACGUCGCAGCCCCUGUCAGAUUCACGUGAAUCUGCGAAUUCAGCUGUAUACCUC [A13G U51A G52C U69A U78C],0.51
4,UAACAGGGGGCCGCAGCAGAAGCGUUCACGUCGCAGCCCCUGUCAGAUUCCGGUGGAUCUGCGAAUUCUGCUGCGUAUCUC [A13G U51C A56G U74C A75G],0.57
5,UAACAGGGGGCCGCAGCAGAAGCGUUCACGUCGCAGCCCCUGUCAGAUUCCGGUGAAUCUGUGAAUUCUGCUGUAUAUCUC [A13G U51C C62U],0.28
6,UAACAGGGGGCCGCAGCAGAAGCGUUCACGUCGCAGCCCCUGUCAGAUUCCGGUGAAUCAGCGAAUCCUGCUGUAUGUCUC [A13G U51C U60A U67C A77G],0.14
7,UAACAGGGGGCCGCAGCAGAAGCGUUCACGUCGCAGCCCCUGUCAGAUUCCGGUGAAUCUGCGAAUUCCGCUGUAUAUCUC [A13G U51C U69C],0.36
8,UAACAGGGGGCCGCAGCAGAAGCGUUCACGUCGCAGCCCCUGUCAGAUUCCGGUGAAUCUGCGAAUUCUGCUGUAUACCUC [A13G U51C U78C],0.97
9,UAACAGGGGGCCGCAGCAGAAGCGUUCACGUCGCAGCCCCUGUCAGAUUCUGGAGAAUCUGCGAAUUCUGCUGUAUACCUC [A13G U54A U78C],1
10,UAACAGGGGGCCGCAGCAGAAGCGUUCACGUCGCAGCCCCUGUCAGAUUCUGGUGAACCUGCGUAUUCUGCUGUAUAUCUC [A13G U58C A64U],0.1
11,UAACAGGGGGCCGCAGCAGAAGCGUUCACGUCGCAGCCCCUGUCAGAUUCUGGUGAACCUGCGAAUUCUGCUAUAUAUCUC [A13G U58C G73A],0.82
12,UAACAGGGGGCCGCAGCAGAAGCGUUCACGUCGCAGCCCCUGUCAGAUUCUGGUGAACCAGCGAAUUCUGCUGUAUAUCAC [A13G U58C U60A U80A],0.15
13,UAACAGGGGGCCGCAGCAGAAGCGUUCACGUCGCAGCCCCUGUCAGAUUCUGGUGAAUCCGCGAAUUCUGCUGUAUAUAUC [A13G U60C C79A],0.71
14,UAACAGGGGGCCGCAGCAGAAGCGUUCACGUCGCAGCCCCUGUCAGAUUCUGGUGAAUCCGCGAAUCCUGCUGUAUAUCUC [A13G U60C U67C],0.38
15,UAACAGGGGGCCGCAGCAGAAGCGUUCACGUCGCAGCCCCUGUCAGAUUCUGGUGAAUCCGCGAAUUCAGCUGUAUACCUC [A13G U60C U69A U78C],0.35
16,UAACAGGGGGCCGCAGCAGAAGCGUUCACGUCGCAGCCCCUGUCAGAUUCUGGUGAAUCUGCGAAUCCUGCUGUAUGUCUC [A13G U67C A77G],0.17
17,UAACAGGGGGCCGCAGCAGAAGCGUUCACGUCGCAGCCCCUGUCAGAUUCUGGUGAAUCUGCGAAUCCUGCUGUAUAUCAC [A13G U67C U80A],0.11

row,Variant,self-cleavage
1,UAACAGGGGGCCGCAGCAGAAGCGUUCACGUCGCAGCCCCUGUCAGAUUCUGGUGAAUCUGCGAAUUCCGCUGUAUGUUUC [A13G U69C A77G C79U],0.84
2,UAACAGGGGGCCGCAGCAGAAGCGUUCACGUCGCAGCCCCUGUCAGAUUCUGGUGAAUCUGCGAAUUCCGCCGUAUAUCUC [A13G U69C U72C],0.35
3,UAACAGGGGGCCGCAGCAGAAGCGUUCACGUCGCAGCCCCUGUCAGAUUCUGGUGAAUCUGCGAAUUCUGCAGUAUAUCAC [A13G U72A U80A],0.63
4,UAACAGGGGGCCGCAGCAGAAGCGUUCACGUCGCAGCCCCUGUCAGAUUCUGGUGAAUCUGCGAAUUCUGCUGAAUGUCUC [A13G U74A A77G],1.22
5,UAACAGGGGGCCUCGGCAGAAGCGUUCACGUCGCGGCCCCUGUCAGAUUCUGGUGGAUCUGCGAAUUCUGCUGUAUAUCUC [A13U A15G A35G A56G],0.77
6,UAACAGGGGGCCUCGGCAGAAGCGUUCACGUCGCGGCCCCUGUCAGAUUCUGGUGAAUCUGCGAAUUCUGCUGUGUAUCUC [A13U A15G A35G A75G],0.96
7,UAACAGGGGGCCUCGGGAGAAGCGUUCACGUCGCAGCCCCUGUCAGAUUCUGGUGAAUCUGCGGAUUCUGCUGUAUAUCUC [A13U A15G C17G A64G],0.46
8,UAACAGGGGGCCUCGGCAGAAGAGUCCACGUCGCAGCCCCUGUCAGAUUCUGGUGAAUCUGCGAAUUCUGCUGUAUAUCUC [A13U A15G C23A U26C],0.24
9,UAACAGGGGGCCUCGGCAGAAGAGUUCACGUCGCAGCCCCUGUCAGAUUCUGGUGAAUCUGCGAACCCUGCCGUAUAUCUC [A13U A15G C23A U66C U67C U72C],0.07
10,UAACAGGGGGCCUCGUCAGGGGCGUUCACGUCGCUGCCCCUGUCAGAUUCUGGUGGAUCUGCGAAUUCUGCUGUAUAUCUC [A13U A15G G16U A20G A21G A35U A56G],0.05
11,UAACAGGGGGCCUCGGCAGAAGCGUCCACGUCGCAGCCCCUGUCAGAUUCUGGUGAAUCUGCGAAUCCUGCCGUAAAUCUC [A13U A15G U26C U67C U72C U76A],0.12
12,UAACAGGGGGCCUCGGCAGAAGCGUUCACGGCGUAGCCCCUGUCGGAUUCUGGUGAAUCUGCGAACUCUGCUGUAUAUCUC [A13U A15G U31G C34U A45G U66C],0.07
13,UAACAGGGGGCCUCGGCAGAAGCGUUCACGUCGCAGCCCCCGUCAGAUUCUGGUAAAUCUGCGAAUUCUGCUGUAUAUCUC [A13U A15G U41C G55A],0.47
14,UAACAGGGGGCCUCUGCAGAUGCGUUCACGUCGCAGCCCCUGUCUGAUUCUGGUGAAUCUGCGGAUUCUGCUGUAUAUCUC [A13U A15U A21U A45U A64G],0.08
15,UAACAGGGGGCCUCUGCAGAAGCGUUCGCGUCGCAGCCCCGGUCAGAUUCUGGUGUAUCUGCGGAUUCUGCUGUAUAUCUC [A13U A15U A28G U41G A56U A64G],0.11
16,UAACAGGGGGCCUCUGCAGAAGAGUUCACGUCGCAGCCCCUGUCUGAUUCUGGUGAAUCUGCGAAUGUUGCUGUAUAUCUC [A13U A15U C23A A45U U67G C68U],0.07
17,UAACAGGGGGCCUCUGCAGAAGCGGUCACGUCGCAGCCCCUGUCAGAUUCUGGUGAAUCUGCGAAUUCUGCUGUAUAUCUC [A13U A15U U25G],0.28
